Measurements: the RNAGym collection of RNA variant scans (doi:10.7554/elife.90254)
Read counts are not given, so values of variants with three or more changes are uncertain.

B1: OR4K15 (parent)
chain: GUUAACGGUCAUAGGCCAUGGAAACUAGGAGCACCAUUUCGCUGCCAGUGAAGAAAUGAACAAAGAAAAUCUGGGCCAGGCAGGCAUCAAAAGAAAUAGUCUUGCGCUCAACCAGAAAGUCUGUAAUCAUUUUAAGGGUA

Variants of: B1
Assay: self-cleavage, relative activity (ratio to wild type); higher = more cleavage; in vitro, sequencing; the parent is a self-cleaving ribozyme

Variant | self-cleavage
A63G U102A A135U | 1.58
A64U A89U A126U | 0.78
A63G A64G A94G | 2.01
A62G A90G A126G | 0.37
A64U A69C U70C A78G U100C U124C | 0.16
A63G A86G A94G | 1.36
A66G A68G U103C | 0.31
A63G A68C A96G U122C U127C U139C | 0.36
A62G A86G A110C U131C U132C | 0.2
A66G A68G A90G | 0.56
A63G A67G U127C | 1.27
A64U A69G U103C A114G G138A | 0.1
A62U A91G A125G | 0
A64G U97C A135U | 1.5
A62U A68G U100C | 1.57
A62G U102C U103C | 0.46
A62G U97C A140G | 1.62
A64G A68U U132C A134G | 1.37
A62G A111G A125G A126G | 0
A63G A91G A92G A135U | 0.68
A64U A110U A114G A129G | 0.08
A62G U100A A125U | 0.33
A62U U87G A134G | 0.41
A62U A78U U120C | 0.23

Variant | self-cleavage
A64G U122C A129G | 1.4
A62U A69G A118G U130C | 0.25
A63G A95C A116G | 0.2
A64G C77U A94G U124C A126U U133C | 1
A66G A68G A92G U124G | 0.94
A62U A69C A95G | 1.81
A63U A78U A117G U130C | 0.21
A63G A68G U87C U132A | 1.1
A62G A118G U139A | 0.74
A64G A92G A117G | 1.65
A63U U72C A90G A95G A126C | 0.24
A63G A68G A92G | 1.23
A66G A68G U102C | 1.67
A63G U120C U122C | 0.44
A64C A68G U122A U130C | 0.55
A62G A94G A129G | 1.69
A64G U102A A117G U127A | 1.68
A63G A89G U132C | 1.85
A64G A95G A96C | 0.17
A62U A63G A118G | 0.7
A64G A89G G99A | 0.23
A63C U120C A140U | 0.95
A63G A66G A78G U103C U131C | 0.06
A63C A96G A98G | 0.73

Variant | self-cleavage
A62U U87C U127C | 0.91
A62U G65A U122C | 1.05
A62G A95U U130A | 1.1
A64G A67G A125G | 0.42
A64G A86G U139A | 1.42
A63G A66U U120C | 1.8
G65A A129G U130A | 1.07
A63G A111G A118G | 0
A64G A69G U87C U122C U127A | 1.22
A64G A114G C121U | 0.85
A63G U70C A140G | 0.74
A64G G106A U120A | 0.03
G65A A116G U132C | 0.25
A63G U72A U108C | 0.02
A63U A69U A78G A117G | 0.22
G65U A94G U100C | 2.07
A64G A68G U120A A129U | 0.44
A64G U102C A114U | 0.07
G65A A82G U120A U122C | 0.45
A62G A89U U103C A129G | 1.25
A66G A68G A140G | 1.08
A63G A67G U122C | 1.17
A64G A92U A126C | 2
A64G U124C A126G | 0.45

Variant | self-cleavage
A64G C71A A111G | 0.05
A64G A69G U124A | 0.34
A62G A89G U108C | 0.02
A63G A67G U87C U97A G138U | 1.32
A64G U139C A140G | 1.55
A63G A66G A69U | 1.05
A63G A96G A111G | 0.02
A63G A68G A111U | 0.1
A62G A114G A116G | 0.04
A62U A118G U120C A125C | 0.26
A62G U87C C105U | 0.12
A64G U108C A117G | 0.01
A63G C76A A116G | 0.05
G65U A66G U72C | 0.22
A63G U87C U100C U108G A125G U131C | 0
A63G A91G U102C | 1.92
G65A A91G U102A A125G A135G | 0.13
A63G U70A A140G | 1.37
A62G U102C A125G | 0.46
A62G U72C A78C A94G | 0.19
A63G A69U A90G U102C A125G U130C | 1.25
A62G U102C U122A | 2.31
A64G A129G U132C | 2.03
A62G A118C U132C | 0.07

Variant | self-cleavage
A64G A98U A117G A129G | 1.87
A63U A96G U108C A117G | 0
A62G U103G A114G U124C | 0
A63G G83A A135U | 1.78
A64U A89G A114G | 0.02
A63U A66G A78G A96G | 0.36
A64G A92G A96G | 1.65
A63G A118U U130C | 0.33
A62G U108A A116G | 0.02
A63G A69C U120A | 2.45
A64G A116G U122C | 1.16
A63G U72C A110G | 0.04
A63G A94G U122A | 1.22
A63U A82G A118G U132C | 0.22
A63U A66U U132C | 0.55
A62U A111C A117G | 0
A63G A118U U132C | 0.26
A66C A86G A111G | 0.03
A62U A67G A116U U122C | 0.11
A62U U102C A135U | 2.06
A63G A86G A91G A126G | 0.03
A64G A90G A96G | 0.59
A63U A82G A96G A118G U120C U132C | 0.11
A63G U122C A126G | 0.24

Variant | self-cleavage
A63G U103C U124C | 0.87
A64G A67G A110G | 0.25
A62U A78G A91G U139A | 0.07
A63U U97C A117G | 2.11
A64U A91G A92G U132C | 1.05
A63U U103C A118G | 0.72
A63G A78G U103C | 0.08
A62G U72C U131C | 0.12
G65A G73A A89U A90U A117G | 0.06
A63G A96G A116G U131C | 1.13
A63G A67G A94U | 1.31
A63G A68G C77U U122C | 2.27
A63G A91G G123U | 1.07
A63U A89U A110U A135U | 0.89
A64C A86G A129G U131C | 0.87
A63G A64C U97C | 1.06
A64G A68G U120C A126G | 0.51
A63G A111G U124A | 0.02
A63G A66G U108C C109U | 0.01
A62G A92G U108C | 0
A64G A68G U122C | 1.09
A63G U102C U133C | 1.95
A64U U100C A135G | 2.93
A63G A82U A96G | 0.23

Variant | self-cleavage
A64G A91G A95G | 2.53
A62G U100C C105U A110G | 0.05
A63G U72A A89G A117U | 0.34
A64U U102C A117G U120C | 2.29
A64U A86U U100C | 0.97
A64G A118G A135G U139A | 0.24
A64G A91G A94G | 1.78
A63G G80A G83A G137A | 0.39
A64U A66G U130C U132C | 0.48
A64G U122C G137A | 1.32
A62G C81U A114U U127C | 0.03
A64G A96G A111G U122A | 0.02
A63G U87C A118G | 0.44
A62U A96G A111G | 0.01
A63G A114U U122A U124C | 0.08
A64G A98G U103C A118G | 0.03
A62G A91G A125C | 1.13
A63G A111G U131C | 0.01
A62U A63G U87C | 0.95
A63G A66G A78G U127A | 0.5
A64G A125G U127C U132C | 0.06
A62U A78C A90G | 0.25
A64G A67G U72C A90G | 0.16
